# About 4,300 (8.3%) of roughly 52,000 compounds were called active. Cut-off read from the data, not from the text of the source: active = survival mostly below about 52% (no sharp cut-off); inactive = mostly above about 56%. Some of the results follow.
# System: DeltatarO mutant
# Assay: S. aureus survival, RN4220 and DeltatarO strains – OD600, teichoic acid synthesis inhibitors, primary screen (AID 463173)
# Details: S. aureus RN4220 wild type/DeltatarO growth, OD600, 18 h, active compounds read low, screened at 18.75 µg/mL (by protocol)
row,SMILES,survival
1,COc1ccc(NC(=O)CCc2nnc3n(C)c(=O)c4sccc4n23)cc1,inactive: 196%
2,C=CCc1ccccc1OCCSc1nc(-c2ccc(C(C)(C)C)cc2)nc2cc(=O)[nH]n12,active: 32%
3,CC1CN(C(=O)Nc2ccc(C(=O)NCCc3ccccc3)cc2)c2ccccc2S1 (centres undefined),inactive: 99%
4,CCOc1cc(-c2ccc(OC(=O)c3ccccc3F)cc2)cc(=O)c2c(C)oc(C)c12,inactive: 79%
5,Cc1ccc(C(C(=O)NCc2ccccc2)N(C(=O)C2COc3ccccc3O2)c2cccc(O)c2)o1 (centres undefined),active: 45%
6,O=C(CSc1nccn1Cc1ccccc1)NCc1ccc(F)cc1,inactive: 75%
7,CCN(Cc1ccccc1)C(=O)c1c(C)oc2ncn(C)c(=O)c12,inactive: 84%
8,COc1cc2ccccc2cc1C(=O)Nc1ccc2oc(-c3ccc(F)cc3)nc2c1,active: 43%
9,CCc1ccccc1NC(=O)c1nnn(-c2ccc(F)cc2)c1C,inactive: 74%
10,CC1CCN(S(=O)(=O)c2ccc3c(c2)oc(=O)n3CC(=O)NCc2ccc(F)cc2)CC1,inactive: 111%
11,CCOc1ccc(NC(=O)Cn2c(=O)n(Cc3ccco3)c(=O)c3oc4ccccc4c32)cc1,inactive: 76%
12,COc1cccc(NC(=O)C2CCCN(S(=O)(=O)c3c(C)[nH]c(=O)[nH]c3=O)C2)c1 (centres undefined),inactive: 139%
13,Cc1cc(C)cc(NC(=O)CCC(=O)N2Cc3ccccc3Oc3ncccc32)c1,inactive: 95%
14,O=C(Nc1ccc(Br)c2cccnc12)c1cccc2ccccc12,active: 29%
15,Cc1ccc(CCNC(=O)c2cc3sccc3n2Cc2ccc(C)cc2)cc1,inactive: 80%
16,CCCc1cnc2c(c1SCC(=O)N(C)c1ccccc1)c(=O)n(C)c(=O)n2C,inactive: 118%
17,Cc1c(Cl)ccc2sc(NC(=O)c3ccc(S(=O)(=O)N4CCCc5ccccc54)cc3)nc12,inactive: 55%
18,COc1cccc(CNC(=O)C2CCCN(S(=O)(=O)c3ccc4c(ccn4C)c3)C2)c1 (centres undefined),inactive: 124%
19,Cc1nc2c(-c3ccccc3)c(C)nn2c(C)c1CCC(=O)NC(C)c1ccccc1 (centres undefined),inactive: 93%
20,COc1ccc(NC(=O)CC2C(=O)N(c3ccc(F)cc3)C(=O)N2Cc2cccnc2)cc1 (centres undefined),inactive: 99%
21,CCCN(C(=O)c1cc2c(s1)-c1ccccc1OC2)c1ccccc1F,active: -4%
22,CCOC(=O)c1cccc(NC(=O)c2oc3c(c2C)-c2[nH]ncc2CC3)c1,inactive: 69%
23,CCC(C(=O)Nc1ccc(C(=O)OC)cc1)n1c(=O)c(-c2ccccc2NC(C)=O)nc2ccccc21 (centres undefined),inactive: 94%

row,SMILES,survival
1,CCc1ccccc1NS(=O)(=O)c1ccc2[nH]cc(C(=O)N3CCCCC3)c(=O)c2c1,inactive: 121%
2,COc1cc(CN(C(=O)Nc2ccccc2)c2ccccn2)cc(OC)c1OC,inactive: 66%
3,Cc1ccc(Oc2c(C(F)(F)F)oc3c(CN4CCCCC4)c(O)ccc3c2=O)cc1,inactive: 48%
4,CCOc1cccc2cc(-c3nc(-c4ccccc4C)no3)c(=O)oc12,inactive: 76%
5,Cc1cc(F)ccc1NC(=O)CCS(=O)(=O)c1ccc2c(c1)NC(=O)CO2,inactive: 88%
6,O=C(Nc1ccc(Cl)cc1)C1CCCN(S(=O)(=O)c2ccc3[nH]c(=O)ccc3c2)C1 (centres undefined),inactive: 88%
7,CCOC(=O)c1ccccc1NC(=O)CSc1cn(CC(=O)N2CCCCC2)c2ccccc12,inactive: 79%
8,OCC1OC(n2nnc3ccccc32)C(O)C(O)C1O (centres undefined),inactive: 96%
9,Cc1ccc(-n2nc(C(=O)N3CCN(c4cc(Cl)ccc4C)CC3)c(=O)n(C)c2=O)cc1,inactive: 116%
10,CCc1ccc(C(=O)c2cn(CC(=O)Nc3ccc(F)c(F)c3)c3cc(OC)c(OC)cc3c2=O)cc1,inactive: 121%
11,CCCCNC(=O)C1CCCN(Cc2nc(-c3ccc(Cl)cc3)oc2C)C1 (centres undefined),inactive: 77%
12,Cc1ccc(NC(=O)c2cc(S(=O)(=O)NCCC3=CCCCC3)ccc2F)cc1F,inactive: 115%
13,COc1ccc(Cl)cc1NC(=O)c1ccc2nc(Cc3ccccc3)oc2c1,inactive: 101%
14,O=C(O)c1cccc(N=C2NC(=O)C(CO)(CO)S2)c1,inactive: 89%
15,CC(C)CCNC(=O)c1cccc(Nc2nc3ccccc3n3nnnc23)c1,active: 39%
16,CCCC(=O)Nc1cc(C)c(O)c(-c2nc3ncccc3o2)c1,inactive: 91%
17,Cc1cc(OCC(=O)Nc2ccc(-c3nc4cc(Cl)ccc4o3)cc2)cc(C)c1Cl,inactive: 81%
18,CCc1ccc(C2CC(=O)c3c([nH]c(C(=O)OCC4CCCCC4)c3C)C2)cc1 (centres undefined),inactive: 89%
19,NS(=O)(=O)c1ccc(CCNC(=O)C2COc3ccccc3C2)cc1 (centres undefined),inactive: 71%
20,Cc1ccc(Cn2c(=O)c3cccnc3n(CC(=O)Nc3cccc(C(F)(F)F)c3)c2=O)cc1,inactive: 64%
21,O=C(COc1ccccc1)NCc1ccc2c(c1)CCN2C(=O)c1ccc(F)cc1,inactive: 94%
22,Cc1ccc(-n2ncc3c(N4CCCCCC4)ncnc32)cc1,inactive: 100%
23,COc1cc(NC(=O)CCn2c(-c3ccccc3)cc(C(C)=O)c2C)cc(OC)c1,inactive: 78%

row,SMILES,survival
1,CC1(C)CC(=O)C(C=NC(C)(C)C)=C(O)C1,inactive: 84%
2,Cc1cc(C)c(NC(=O)CSc2ccnc(=O)[nH]2)c(C)c1,inactive: 94%
3,O=C(NCCCN1CCCC1)c1ccccc1Cl,inactive: 86%
4,COc1ccc(NC(=O)C(NS(=O)(=O)c2ccc3c(c2)CCCC(=O)N3)C(C)C)c(OC)c1 (centres undefined),inactive: 94%
5,Cc1cccc(CNC(=O)c2oc3c(c2C)-c2nn(Cc4ccccc4Cl)cc2CC3)c1,inactive: 66%
6,CC1(NS(=O)(=O)c2ccccc2)CCS(=O)(=O)C1 (centres undefined),inactive: 98%
7,Cc1c(Cl)cccc1NC(=O)CSc1ncnc2c1sc1ccccc12,inactive: 67%
8,Cc1ccc(NC(=O)Cc2c(C(=O)O)c(C)cn2C)cc1Cl,inactive: 94%
9,CC(C)OCCCn1c(SCc2ccccc2C#N)nc2c(sc3ccccc32)c1=O,inactive: 87%
10,NC(=O)CSc1nnc(COc2cccc3ccccc23)o1,inactive: 89%
11,CCN(CC)CC(C)CNC(=O)CN1C(=O)CSc2ccc(S(=O)(=O)N3CCOCC3)cc21 (centres undefined),inactive: 119%
12,COc1cc(OC)c(NC(=O)CN2C(=O)CCn3nc(-c4cccn4C)cc32)cc1Cl,inactive: 90%
13,O=C(CN1C2=NCCN2c2ccccc21)c1ccco1,inactive: 79%
14,CCc1cccc(NC(=O)Nc2ccc3c(c2)N(C)C(=O)c2ccccc2S3)c1,active: 26%
15,c1ccc(-n2ncc3c(NC4CCCC4)ncnc32)cc1,inactive: 117%
16,Cc1oc(C(C)(C)C)cc1C(=O)NC(Cc1ccccc1)C(=O)O (centres undefined),inactive: 56%
17,COc1ccc(NS(=O)(=O)c2cc3[nH]c(=O)c(=O)[nH]c3cc2C)cc1Cl,inactive: 94%
18,Cn1cc(S(=O)(=O)N2CCCCCC2)cc1C(=O)N1CCN(c2ccc(F)cc2)CC1,inactive: 75%
19,CCC(=O)N1CCc2cc(Br)cc(S(=O)(=O)CCC(=O)NCCc3ccc(OC)c(OC)c3)c21,inactive: 133%
20,CCOc1ccc(/C=C/c2nc(C#N)c(N3CCN(c4ccc(OC)cc4)CC3)o2)cc1,inactive: 72%
21,O=C(CC1Sc2ccc(C(F)(F)F)cc2NC1=O)Nc1ccc(Cl)c(C(F)(F)F)c1 (centres undefined),active: 22%
22,CCOc1ccc(-c2cc(OC(=O)c3ccc(F)cc3)c3c(C)oc(C)c3c(=O)c2)cc1,inactive: 69%
23,CCOc1ccc(-n2c(SCc3ccc(C(=O)OC)o3)nc3c([nH]c4ccccc43)c2=O)cc1,inactive: 83%

row,SMILES,survival
1,CCCc1cc(=O)[nH]c(Nc2cccc(Cl)c2Cl)n1,inactive: 68%
2,CCN1C(=O)c2ccccc2Sc2ccc(NC(C)=O)cc21,inactive: 87%
3,COc1cc(C(=O)Nc2cc(C)ccc2OCc2cc(=O)n3c(C)csc3n2)cc(OC)c1OC,inactive: 58%
4,COc1cc(C(=O)Nc2cc3c(cc2C)n(C)c(=O)c(=O)n3C)cc(OC)c1OC,inactive: 84%
5,CC1Cc2ccccc2N1C(=O)CSc1nnc2c(n1)[nH]c1ccccc12 (centres undefined),inactive: 70%
6,COc1ccccc1-c1noc(-c2ccc(N3CCC(C)CC3)c([N+](=O)[O-])c2)n1,inactive: 113%
7,FC(F)(F)c1cc(-c2ccc3c(c2)OCO3)nc(=S)[nH]1,inactive: 105%
8,CCC(=O)N1CCc2cc(S(=O)(=O)NC(Cc3ccccc3)C(=O)Nc3ccc(C)cc3)ccc21 (centres undefined),inactive: 64%
9,Cc1ccc(NC(=O)c2sc3nc(-c4cc5ccccc5oc4=O)[nH]c(=O)c3c2C)c(C)c1,active: 39%
10,CCCCNc1nc(Oc2ccc(=O)[nH]n2)nc(N(C)C)n1,inactive: 81%
11,C=C(C)Cn1c(=O)c2c(nc3n2CCN3c2ccc(CC)cc2)n(C)c1=O,inactive: 107%
12,O=C(NCCN1CCCCC1)c1ccc(/C=N/O)nc1,inactive: 98%
13,CCOC(=O)c1cccc(NC(=O)c2cc3c(=O)n(Cc4ccccc4)ccc3nc2C)c1,inactive: 73%
14,Fc1ccc(-n2cc(-c3ccccc3)c3c(NC4CCCCC4)ncnc32)cc1,inactive: 85%
15,CCc1nn(CC(=O)NCCCN(CC)CC)c(=O)c2cc3sc(C)cc3n12,inactive: 108%
16,CSc1ncc(C(=O)Nc2ccccc2C(=O)c2ccccc2)c(C(F)(F)F)n1,inactive: 81%
17,COc1ccc(CCNC(=O)c2cc3c(-c4ccccc4F)nn(C)c3s2)c(OC)c1,inactive: 85%
18,CCCC(C(=O)NC1CCCC1)N(Cc1ccccc1)C(=O)Cn1nnc(-c2ccc(C)o2)n1 (centres undefined),inactive: 66%
19,O=C(Nc1ccc(Br)cc1F)c1cc(S(=O)(=O)NCc2ccc(F)cc2)ccc1F,inactive: 70%
20,COc1ccc(NC(=O)c2cc3c(s2)-c2c(C)cccc2OC3)c(OC)c1,active: 51%

# — PubChem BioAssay AID463173 (ICCB-Longwood Screening Facility, Harvard Medical School, 2010)
